Experimental data published in the supplement of paper PMC8728848.
The other results are listed elsewhere or left out.

What was measured:
Experiment in all cases: glycan array binding signal (z-score within array); higher = stronger binding
Conditions in all cases: glycan notation: IUPAC condensed, linker removed; mutation: Y228W
Fuc(a1-2)Gal = molecular target: Fuc(a1-2)Gal
Procedure, shortened: (§1)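 Glycan array data were curated from 3228 arrays in the Consortium for Functional Glycomics database and kept only where the protein sequence was available. Glycan names were converted to IUPAC-condensed notation, and columns mapping to the same glycan were averaged. The binding signal is a within-array Z-score, averaged across arrays of the same protein sequence at different concentrations or buffers and across linkers. Negative Z-scores can be read as non-binding.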

Fuc(a1-2)Gal(b1-3)GalNAc = molecular target: Fuc(a1-2)Gal(b1-3)GalNAc
Procedure, shortened: as §1

[1] = molecular target: Fuc(a1-2)Gal(b1-3)GalNAc(a1-3)[Fuc(a1-2)]Gal(b1-4)Glc
Procedure, shortened: as §1

[2] = molecular target: Fuc(a1-2)Gal(b1-3)GalNAc(a1-3)[Fuc(a1-2)]Gal(b1-4)GlcNAc
Procedure, shortened: as §1

[3] = molecular target: Fuc(a1-2)Gal(b1-3)GalNAc(b1-3)Gal
Procedure, shortened: as §1

[4] = molecular target: Fuc(a1-2)Gal(b1-3)GalNAc(b1-3)Gal(a1-4)Gal(b1-4)Glc
Procedure, shortened: as §1

[5] = molecular target: Fuc(a1-2)Gal(b1-3)GalNAc(b1-4)[Neu5Ac(a2-3)]Gal(b1-4)Glc
Procedure, shortened: as §1

Fuc(a1-2)Gal(b1-3)GlcNAc = molecular target: Fuc(a1-2)Gal(b1-3)GlcNAc
Procedure, shortened: as §1

[6] = molecular target: Fuc(a1-2)Gal(b1-3)GlcNAc(b1-2)Man(a1-3)[Fuc(a1-2)Gal(b1-3)GlcNAc(b1-2)Man(a1-6)]Man(b1-4)GlcNAc(b1-4)GlcNAc
Procedure, shortened: as §1

[7] = molecular target: Fuc(a1-2)Gal(b1-3)GlcNAc(b1-2)Man(a1-3)[Fuc(a1-2)Gal(b1-3)GlcNAc(b1-2)Man(a1-6)]Man(b1-4)GlcNAc(b1-4)[Fuc(a1-6)]GlcNAc
Procedure, shortened: as §1

[8] = molecular target: Fuc(a1-2)Gal(b1-3)GlcNAc(b1-3)Gal(b1-4)Glc
Procedure, shortened: as §1

[9] = molecular target: Fuc(a1-2)Gal(b1-3)GlcNAc(b1-3)GalNAc
Procedure, shortened: as §1

[10] = molecular target: Fuc(a1-2)Gal(b1-3)GlcNAc(b1-3)[Fuc(a1-2)Gal(b1-3)GlcNAc(b1-6)]GalNAc
Procedure, shortened: as §1

[11] = molecular target: Fuc(a1-2)Gal(b1-3)GlcNAc(b1-3)[Gal(b1-4)GlcNAc(b1-6)]Gal(b1-4)Glc
Procedure, shortened: as §1

[12] = molecular target: Fuc(a1-2)Gal(b1-3)GlcNAc(b1-3)[Neu5Ac(a2-6)Gal(b1-4)GlcNAc(b1-6)]Gal(b1-4)Glc
Procedure, shortened: as §1

[13] = molecular target: Fuc(a1-2)Gal(b1-3)GlcNAc6S
Procedure, shortened: as §1

[14] = molecular target: Fuc(a1-2)Gal(b1-3)[Fuc(a1-4)]GlcNAc
Procedure, shortened: as §1

[15] = molecular target: Fuc(a1-2)Gal(b1-3)[Fuc(a1-4)]GlcNAc(b1-2)Man(a1-3)[Fuc(a1-2)Gal(b1-3)[Fuc(a1-4)]GlcNAc(b1-2)Man(a1-3)]Man(b1-4)GlcNAc(b1-4)GlcNAc
Procedure, shortened: as §1

[16] = molecular target: Fuc(a1-2)Gal(b1-3)[Fuc(a1-4)]GlcNAc(b1-2)Man(a1-3)[Fuc(a1-2)Gal(b1-3)[Fuc(a1-4)]GlcNAc(b1-2)Man(a1-6)]Man(b1-4)GlcNAc(b1-4)[Fuc(a1-6)]GlcNAc(b1-4)[Fuc(a1-6)]GlcNAc
Procedure, shortened: as §1

[17] = molecular target: Fuc(a1-2)Gal(b1-3)[Fuc(a1-4)]GlcNAc(b1-3)[Fuc(a1-3)[Gal(b1-4)]GlcNAc(b1-6)]Gal(b1-4)Glc
Procedure, shortened: as §1

[18] = molecular target: Fuc(a1-2)Gal(b1-3)[Fuc(a1-4)]GlcNAc(b1-3)[Gal(b1-4)GlcNAc(b1-6)]Gal(b1-4)Glc
Procedure, shortened: as §1

[19] = molecular target: Fuc(a1-2)Gal(b1-4)Fuc(a1-3)]GlcNAc(b1-2)Man(a1-3)[Fuc(a1-2)Gal(b1-4)[Fuc(a1-3)]GlcNAc(b1-2)Man(a1-6)]Man(b1-4)GlcNAc(b1-4)GlcNAc
Procedure, shortened: as §1

Fuc(a1-2)Gal(b1-4)Glc = molecular target: Fuc(a1-2)Gal(b1-4)Glc
Procedure, shortened: as §1

Fuc(a1-2)Gal(b1-4)Glc6S = molecular target: Fuc(a1-2)Gal(b1-4)Glc6S
Procedure, shortened: as §1

Fuc(a1-2)Gal(b1-4)GlcNAc = molecular target: Fuc(a1-2)Gal(b1-4)GlcNAc
Procedure, shortened: as §1

[20] = molecular target: Fuc(a1-2)Gal(b1-4)GlcNAc(b1-2)Man
Procedure, shortened: as §1

[21] = molecular target: Fuc(a1-2)Gal(b1-4)GlcNAc(b1-2)Man(a1-3)[Fuc(a1-2)Gal(b1-4)GlcNAc(b1-2)Man(a1-6)]Man(b1-4)GlcNAc(b1-4)GlcNAc
Procedure, shortened: as §1

[22] = molecular target: Fuc(a1-2)Gal(b1-4)GlcNAc(b1-2)Man(a1-3)[Fuc(a1-2)Gal(b1-4)GlcNAc(b1-2)Man(a1-6)]Man(b1-4)GlcNAc(b1-4)[Fuc(a1-6)]GlcNAc
Procedure, shortened: as §1

[23] = molecular target: Fuc(a1-2)Gal(b1-4)GlcNAc(b1-2)[Fuc(a1-2)Gal(b1-4)GlcNAc(b1-4)]Man(a1-3)[Fuc(a1-2)Gal(b1-4)GlcNAc(b1-2)Man(a1-6)]Man(b1-4)GlcNAc(b1-4)GlcNAc
Procedure, shortened: as §1

[24] = molecular target: Fuc(a1-2)Gal(b1-4)GlcNAc(b1-3)Gal(b1-4)GlcNAc
Procedure, shortened: as §1

B1: Epa1-NP-mutant-Y228W (Candida glabrata), Q6VBJ0 (protein)
chain: MILNPALFLNKCVCIYTTLILLLLTNGGYATSSNDISLASKDPTTFPLGCSPDITTPKKGLSMELYSYDFRKKGSYPCWDAAYLDPNYPRTGYKSHRLLAKVDGVTGNINFYYHATKGCTPQLGHLPASYNYPKPLTMTNFTMLLYGYFRPKVTGFHTFTISADDLLFVNFGAGNAFDCCRRDSSADHFGNYQAYAIWGSKTAKDELTVHLDAGVYYPIRLFYNNREWDGALSFTFKTESNENTVSDFSEYFFSLDDTEEGCPGLISYDSSCASVKTSKIIGIDYHTETPNENLVPITKTIYHLGIPCTGTTTTPLCGSGFYDPLANKCVTINTSSTSSVTKTTSHTTSKEVSFHSSISSQKTLIPKSIPSPYGPIKSQSIPTEMETSSEISSSEYAFSDVISTPSHSPYTKKHSSLNSSSYTSTVIHSLTSYSISQGIFSTSLSEQNITSKSSTDKFSTATSMSNNITQSSIIISQFSTNNENYTTTSMHTSSDKISTETLNNSISTTTSILFSNSSTILKNNTTIISSDKDTHYHPVNPTIVCSTNKTEIICASITQPSISNSNNHWSSSVLKFNSTTVRSTLPSSAGSNETSINVPFSSSTESNTSTSSTSTSNSKMVRSTLPSSAGSNETSISVPFSSSTESNTSTSSTSTSNSKMVRSTLPSSAGSNETSINVPFSSSTESNTSTSSTSTSNSKTVRSTPFSSAGIIMTSLSQRNNKSASSYASSNSKCYNTADSCRKVHSTPSYLLTSSYTSEGVDYDCSLVSTKLKINDTNCVNNKHTTKSCLKTSVTTTIPTLEIKTARKSSSNTIGLHSYPTSSPNKSISSAPIIGYISSFKTIKTASPSYQTSDLTTITTITSLNNPGSTAVENTHESNDKSRKTSSNDISSKHSVIKETKDAVESSNKSHQTNTLKCSSIIIASSSHNSYESLGGTTLTLTLSKVYSPQNNDTLPFLEISEVNPSRTVLPESSKMMQYLTSTEERNKTARNTIATNIVSISTFHFEGEGNAIRMGYTQLLLMLIGIIVMNIGT
glycan array binding signal (z-score) (Fuc(a1-2)Gal): -0.022 | glycan array binding signal (z-score) (Fuc(a1-2)Gal(b1-3)GalNAc): -0.261 | glycan array binding signal (z-score) [1]: -0.4 | glycan array binding signal (z-score) [2]: -0.325 | glycan array binding signal (z-score) [3]: -0.075 | glycan array binding signal (z-score) [4]: -0.25 | glycan array binding signal (z-score) [5]: -0.209 | glycan array binding signal (z-score) (Fuc(a1-2)Gal(b1-3)GlcNAc): -0.197 | glycan array binding signal (z-score) [6]: 0.085 | glycan array binding signal (z-score) [7]: 0.137 | glycan array binding signal (z-score) [8]: -0.304 | glycan array binding signal (z-score) [9]: -0.155 | glycan array binding signal (z-score) [10]: -0.183 | glycan array binding signal (z-score) [11]: -0.132 | glycan array binding signal (z-score) [12]: -0.437 | glycan array binding signal (z-score) [13]: -0.24 | glycan array binding signal (z-score) [14]: -0.345 | glycan array binding signal (z-score) [15]: 0.401 | glycan array binding signal (z-score) [16]: -0.08 | glycan array binding signal (z-score) [17]: -0.48 | glycan array binding signal (z-score) [18]: 0.072 | glycan array binding signal (z-score) [19]: 0.469 | glycan array binding signal (z-score) (Fuc(a1-2)Gal(b1-4)Glc): -0.146 | glycan array binding signal (z-score) (Fuc(a1-2)Gal(b1-4)Glc6S): -0.195 | glycan array binding signal (z-score) (Fuc(a1-2)Gal(b1-4)GlcNAc): 0.021 | glycan array binding signal (z-score) [20]: -0.154 | glycan array binding signal (z-score) [21]: -0.158 | glycan array binding signal (z-score) [22]: -0.202 | glycan array binding signal (z-score) [23]: 0.052 | glycan array binding signal (z-score) [24]: -0.257
